Source: PubChem BioAssay AID1347165 (National Center for Advancing Translational Sciences (NCATS), 2019)
Out of some 220,000 compounds screened, about 5,700 (2.6%) were called active. Inconclusive means that the source gave no clear call. Such entries were picked first, then a sample of the others. Calls follow the shape of the dose curve; as a rule, active = well fitted inhibition curve with a large enough effect; inconclusive = small, poorly fitted or top-dose-only effect; inactive = no such curve, though single readings can be large or run the other way. A potency beside an inconclusive call is a rough fit, not a confirmed value.
Also: nearly all actives have a fitted effect of over 70% in size.
For activity change, negative = inhibition in this document: 0% is about no effect.
Potency is read from the fitted curve at half-maximal effect; tags tell the direction and shape of the fitted curve.

The molecules below were run against Lysine-specific demethylase 5B (Homo sapiens) (UniProt Q9UGL1) (assay: Primary screen for KDM5B Histone Demethylases FDH-coupled qHTS). Settings: FDH-coupled NADH fluorescence (FDH is formaldehyde dehydrogenase); activity change, negative = inhibition: at 57.7 µM (top of the series) unless noted.
Sequence of UniProt Q9UGL1 (Q9UGL1 whole entry, looked up): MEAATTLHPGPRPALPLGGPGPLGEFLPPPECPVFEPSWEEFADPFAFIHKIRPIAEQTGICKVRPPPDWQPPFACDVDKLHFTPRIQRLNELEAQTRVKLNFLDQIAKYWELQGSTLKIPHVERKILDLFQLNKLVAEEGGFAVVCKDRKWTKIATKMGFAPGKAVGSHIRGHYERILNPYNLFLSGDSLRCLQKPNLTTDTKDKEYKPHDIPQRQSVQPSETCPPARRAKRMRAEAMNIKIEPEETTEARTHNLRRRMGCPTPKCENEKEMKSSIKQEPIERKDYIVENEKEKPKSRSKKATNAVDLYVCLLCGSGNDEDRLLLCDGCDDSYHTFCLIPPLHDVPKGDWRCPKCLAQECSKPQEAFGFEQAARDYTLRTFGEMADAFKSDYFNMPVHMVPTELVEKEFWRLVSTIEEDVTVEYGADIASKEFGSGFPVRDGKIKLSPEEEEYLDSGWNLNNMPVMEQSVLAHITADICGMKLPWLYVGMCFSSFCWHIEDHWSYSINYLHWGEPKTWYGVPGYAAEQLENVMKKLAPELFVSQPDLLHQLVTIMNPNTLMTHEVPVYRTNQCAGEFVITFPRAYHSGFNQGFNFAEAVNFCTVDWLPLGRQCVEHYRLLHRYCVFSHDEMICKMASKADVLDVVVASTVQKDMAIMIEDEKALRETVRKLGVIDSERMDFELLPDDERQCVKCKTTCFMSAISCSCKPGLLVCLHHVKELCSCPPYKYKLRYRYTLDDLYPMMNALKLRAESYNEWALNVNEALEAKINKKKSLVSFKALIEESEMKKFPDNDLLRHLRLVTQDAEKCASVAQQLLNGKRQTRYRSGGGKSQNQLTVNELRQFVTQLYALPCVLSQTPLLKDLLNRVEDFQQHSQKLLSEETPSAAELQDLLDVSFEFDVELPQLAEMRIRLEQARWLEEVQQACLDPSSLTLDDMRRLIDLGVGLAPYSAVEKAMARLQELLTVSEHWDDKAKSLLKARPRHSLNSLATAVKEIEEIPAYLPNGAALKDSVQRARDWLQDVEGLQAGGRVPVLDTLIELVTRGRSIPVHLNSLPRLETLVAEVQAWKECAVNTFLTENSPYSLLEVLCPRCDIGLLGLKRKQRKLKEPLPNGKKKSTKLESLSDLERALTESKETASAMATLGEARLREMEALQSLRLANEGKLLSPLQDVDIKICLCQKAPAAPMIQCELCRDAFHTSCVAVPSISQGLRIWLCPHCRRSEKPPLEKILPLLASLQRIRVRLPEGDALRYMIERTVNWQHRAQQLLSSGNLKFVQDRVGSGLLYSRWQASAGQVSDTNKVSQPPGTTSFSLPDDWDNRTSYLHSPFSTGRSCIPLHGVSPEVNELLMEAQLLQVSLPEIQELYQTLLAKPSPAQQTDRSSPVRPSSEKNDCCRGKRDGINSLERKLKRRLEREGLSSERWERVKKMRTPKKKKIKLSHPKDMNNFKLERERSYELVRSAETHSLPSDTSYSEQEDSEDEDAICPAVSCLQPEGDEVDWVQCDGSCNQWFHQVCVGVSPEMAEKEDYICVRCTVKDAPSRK
Summary of the method: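 KDM5BΔAP (200 nM final) in 50 mM HEPES pH 7.5, 0.01% Tween-20 was preincubated 10 min at RT with compound over a concentration range. Substrate mix (H3K4me3 12.5 µM, α-KG 25 µM, Fe²⁺, ascorbate, NAD⁺, FDH) was added, and NADH fluorescence change over 30 min gave dose-response curves.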
In the case of `CN(C)C[C@@H]1CN(c2ncccn2)C[C@H]1NC(=O)c1ccccc1Cl`, the Potency is reported as active: 22.4 µM.
For `COCCCNC(=O)c1ccc2c(c1)n(Cc1ccccc1)c(=O)c1ccnn12`, the Potency was inconclusive: 28.2 µM [inhibitor, partial curve, poor fit].
`COCCCNC(=O)CCC[C@@H]1[C@H]2CCCN3CCC[C@@H](CN1C(=O)c1ccccc1)[C@@H]23` was tested, and the Potency was inconclusive: 39.8 µM [inhibitor, single point].
For `NC(=O)c1ccsc1NC(=O)COC(=O)c1ccc(Cl)cc1F`, the “activity change, negative = inhibition” value was inactive: -16%.
For `COc1cc(-c2nnc3n2C(C)(C)Cc2cc(C)c(C)cc2-3)cc(OC)c1OC`, the “activity change, negative = inhibition” value was inactive: 7.28%.
For `O=C(CCC1CCCC1)NCc1nnc2c(-c3nc(C4CC4)no3)cccn12`, the Potency was active: 11.2 µM.
In the case of `CCCC(=O)NNC(=S)NC(C)c1ccccc1` (centres undefined), the “activity change, negative = inhibition” value is reported as inactive: -3.18%.
With `Cc1ccc(CN2C(=O)N/C(=C\c3ccc(-c4ccc(C(=O)O)cc4C)o3)C2=O)cc1` the Potency was inconclusive: 5.01 µM [inhibitor, full curve, poor fit].
In the case of `COc1ccc(Nc2ncnc3onc(C)c23)c(OC)c1`, the Potency is reported as inconclusive: 39.8 µM [inhibitor, single point].
In the case of `CCc1cccc(C)c1NC(=O)c1ccc2c(c1)CCN2S(=O)(=O)CC`, the Potency is reported as inconclusive: 31.6 µM [inhibitor, partial curve, poor fit].
`O=C1Nc2ccc(-c3ccc(Cl)cc3)cc2C(=O)N2CC[C@H](NC(=O)N3CCOCC3)[C@@H]12` was tested, and the Potency was inconclusive: 25.1 µM [inhibitor, partial curve, poor fit].
With `CC(=O)Nc1ccc(NC(=O)c2cc(-c3cccs3)on2)cc1` the Potency was inconclusive: 3.55 µM [inhibitor, partial curve, poor fit].
In the case of `O=C(COc1ccccc1)N[C@H]1[C@H](O)[C@H](O)C[C@@H]1c1ccc(N2CCOCC2)nc1`, the Potency is reported as active: 31.6 µM.
`O=C(NCC1CN(Cc2ccccc2)CC12CN(c1ccccc1)C2)Nc1ccccc1` (centres undefined) was tested, and the Potency was inconclusive: 31.6 µM [inhibitor, single point].
For `COCCNc1ncc(-c2cccc(N)c2)c2c1OCC2`, the Potency was inconclusive: 31.6 µM [inhibitor, single point].
For `Fc1ccc(-c2ccc(CNCc3ccco3)o2)cc1`, the Potency was inconclusive: 25.1 µM [inhibitor, partial curve, poor fit].
For `Cc1cccc(C(=O)Nc2ccc3nsnc3c2)c1`, the Potency was inconclusive: 25.1 µM [inhibitor, partial curve, poor fit].
In the case of `COC(=O)c1cccc(S(=O)(=O)Oc2ccc3ccc(=O)oc3c2)c1`, the Potency is reported as inconclusive: 35.5 µM [inhibitor, single point].
With `CC(C)n1nc(C(=O)Nc2cccc(S(=O)(=O)N3CCCCC3)c2)c2ccccc2c1=O` the Potency was inconclusive: 35.5 µM [inhibitor, single point].
With `Cc1cc2c(n1-c1ccc(C(=O)NCc3ccc(OC(C)C)cc3)cc1)CCCC2` the Potency was inconclusive: 7.94 µM [inhibitor, partial curve, poor fit].
For `COc1ccc2c(c1)c1c(c(=O)n(-c3cccc(C)c3)c(=O)n1CC(=O)NCC1CCCO1)n2C` (centres undefined), the Potency was inconclusive: 14.1 µM [inhibitor, partial curve, poor fit].
For `CCOc1ccc(C(=O)NCCc2sc(-c3ccc(OC)cc3)nc2C)cc1`, the Potency was inconclusive: 22.4 µM [inhibitor, partial curve, poor fit].
For `COc1ccccc1NC(=O)CSc1oc(-c2ccccc2)nc1S(=O)(=O)c1ccccc1`, the Potency was inconclusive: 17.8 µM [inhibitor, partial curve, poor fit].
`COc1ccc(-c2cc(N3CCCC(NC(=O)c4cccs4)C3)n[nH]2)cc1` (centres undefined) was tested, and the “activity change, negative = inhibition” value was inactive: -16.4%.
For `CCN1c2cc(C(=O)Nc3cc(F)ccc3F)ccc2C(=O)N2CCCCCC21` (centres undefined), the Potency was inconclusive: 28.2 µM [inhibitor, partial curve, poor fit].
With `COc1ccccc1CNC(=O)CCCn1c(=O)c2ccccc2n(Cc2ccccc2C#N)c1=O` the Potency was inconclusive: 1.26 µM [inhibitor, full curve, poor fit].
For `CCCC(=O)N1Cc2ccccc2CC2(CCCCN2CC2CCOCC2)C1` (centres undefined), the Potency was inconclusive: 50.1 µM [inhibitor, partial curve, poor fit].
For `COc1ccc(-c2cc(N3CCCN(C(=O)CCc4ccccc4)CC3)n[nH]2)cc1`, the Potency was inconclusive: 17.8 µM [inhibitor, partial curve, poor fit].
In the case of `COc1ccccc1-c1cc(C(=O)N2CCOCC2)nc2c1cnn2C`, the Potency is reported as inconclusive: 39.8 µM [inhibitor, partial curve].
In the case of `Nc1c(C(=O)Nc2ccccc2)c2nc3ccccc3nc2n1-c1ccc(O)cc1`, the Potency is reported as inconclusive: 39.8 µM [inhibitor, single point].
`NC(=O)c1nc(CNC(=O)[C@H]2CCC[C@H](O)C2)no1` was tested, and the “activity change, negative = inhibition” value was inactive: 21.6%.
`N#Cc1ccc(COc2ccc3ccccc3c2CN2CCCCC2)cc1` was tested, and the “activity change, negative = inhibition” value was inactive: -3.68%.
`O=C(Nc1ccc(Cl)c(C(F)(F)F)c1)C1=C(c2ccccc2)S(=O)(=O)CCO1` was tested, and the “activity change, negative = inhibition” value was inactive: 19.7%.
`N#Cc1cccc(C(=O)NC2CCN(c3cc(-c4cccs4)[nH]n3)CC2)c1` was tested, and the “activity change, negative = inhibition” value was inactive: -19.7%.
For `O=C1COc2ccc(NCc3cccs3)nc2CN1Cc1ccc(C(F)(F)F)cc1`, the Potency was inconclusive: 39.8 µM [inhibitor, single point].
For `COc1cccc(CNC(=O)CCCCCn2c(=O)[nH]c3cc(OC)c(OC)cc3c2=O)c1`, the Potency was inconclusive: 1.58 µM [inhibitor, full curve, poor fit].
With `CC(=O)Nc1ccccc1-c1c(C)nn2c1N(Cc1ccccc1)CCC2` the “activity change, negative = inhibition” value was inactive: 15.3% [at 86.2 µM].
For `O=C(NCCc1cnc[nH]1)c1ccc2nc(-c3ccc(F)cc3)cn2c1`, the Potency was active: 31.6 µM.
For `CC(=O)Nc1ccc(NC(=O)COC(=O)c2c(-c3ccccc3)noc2C)cc1`, the “activity change, negative = inhibition” value was inactive: 31.8%.
In the case of `C1=C(c2ccccc2)Nc2nc3ccccc3n2C1c1ccccc1` (centres undefined), the Potency is reported as inconclusive: 15.8 µM [inhibitor, partial curve, poor fit].
In the case of `CCN1CCN(c2ncc3c(n2)CCN(Cc2ccc(OC)c(OC)c2)C3)CC1`, the Potency is reported as inconclusive: 22.4 µM [inhibitor, single point].
`COc1ccc(-c2cc(C(=O)c3c(N)n(C)c(=O)n(C)c3=O)c3ccccc3n2)cc1` was tested, and the Potency was inconclusive: 15.8 µM [inhibitor, single point].
In the case of `CCc1ccc(CNC(=O)c2ccc3c(c2)N(CC)C2CCCCCN2C3=O)cc1` (centres undefined), the Potency is reported as inconclusive: 31.6 µM [inhibitor, partial curve, poor fit].
`Cc1cc2c(n1-c1ccc(C(=O)NCCc3ccccc3)cc1)CCC(C)C2` (centres undefined) was tested, and the Potency was inconclusive: 31.6 µM [inhibitor, partial curve, poor fit].
With `O=C(c1ccc(Cl)cc1)N1N=C(c2ccccn2)CC1(O)C(F)(F)F` (centres undefined) the Potency was inconclusive: 22.4 µM [inhibitor, single point].
With `Cc1cn2cc(C(=O)N3CCCC4(C3)C(=O)N(C)c3ccccc34)ccc2n1` (centres undefined) the Potency was inconclusive: 31.6 µM [inhibitor, partial curve, poor fit].
For `CCc1ccc(CN(C)C(=O)CCc2nnc(-c3ccc(-c4ccccc4)cc3)o2)nc1`, the Potency was inconclusive: 39.8 µM [inhibitor, partial curve, poor fit].
With `CCCc1cc(=O)oc2c(C)c(OC(C)C(=O)NCCCn3ccnc3)ccc12` (centres undefined) the Potency was inconclusive: 25.1 µM [inhibitor, partial curve, poor fit].
In the case of `COc1ccccc1CNC(=O)/C(C#N)=C/c1ccc(OC)c(OC)c1OC`, the Potency is reported as inconclusive: 28.2 µM [inhibitor, single point].
For `Cc1ccc(NC(=O)c2nnc(SCC(=O)NC3CCCC3)s2)cc1`, the “activity change, negative = inhibition” value was inactive: 5.69%.
In the case of `CCOC(=O)NC(C)c1ccc(OC)cc1` (centres undefined), the “activity change, negative = inhibition” value is reported as inactive: 31.6%.
In the case of `CCCN1CCN(C2=NC(Cc3ccccc3)C(=O)N2c2ccccc2OC)CC1` (centres undefined), the “activity change, negative = inhibition” value is reported as inactive: -17%.
In the case of `CC(C)C(=O)Nc1ccc2oc(-c3cncc(Br)c3)nc2c1`, the Potency is reported as inconclusive: 2.51 µM [inhibitor, full curve, poor fit].
In the case of `CCn1cnc2c1c(=O)n(CC(=O)Nc1ccc(N3CCCC3)cc1)c(=O)n2Cc1ccccc1`, the “activity change, negative = inhibition” value is reported as inactive: -6.53%.
In the case of `COc1ccccc1CN1CCNc2cc(-c3ccccc3)ncc2C1`, the Potency is reported as inconclusive: 31.6 µM [inhibitor, single point].
In the case of `Cc1ccc(S(=O)(=O)c2cn(CC(=O)Nc3ccc4c(c3)OCO4)c3ccccc3c2=O)cc1C`, the Potency is reported as inconclusive: 14.1 µM [inhibitor, partial curve, poor fit].
In the case of `Cc1cc(C)n(CCC(=O)NCC2Cn3cccc3C(=O)N2Cc2ccccc2)n1` (centres undefined), the “activity change, negative = inhibition” value is reported as inactive: -6.47%.
`Cc1cc(C)n(-c2nc3ccccc3nc2Nc2cccc(Cl)c2)n1` was tested, and the “activity change, negative = inhibition” value was inactive: -14.4%.
`N#Cc1cc2c(nc1N1CCN(C(C(=O)O)c3c[nH]c4cc(F)ccc34)CC1)CCCC2` (centres undefined) was tested, and the Potency was inconclusive: 20 µM [inhibitor, partial curve, poor fit].
For `CC1(C(=O)N2CC=C(c3ccccc3)CC2)CCCCC(=O)N1` (centres undefined), the “activity change, negative = inhibition” value was inactive: -15.8%.
For `COc1ccc2cc(CNc3ccc(C)cc3)c(=O)n(CC(=O)Nc3cccc(C(F)(F)F)c3)c2c1`, the Potency was inconclusive: 2.24 µM [inhibitor, full curve, poor fit].
With `Cc1ccc(CNC(=O)C(C)N2CCN(c3ccc([N+](=O)[O-])c4cnccc34)CC2)cc1` (centres undefined) the “activity change, negative = inhibition” value was inactive: 9.27%.
With `CCOC(=O)c1sc2nc(C)c3c(c2c1N)CC(C)(C)OC3` the Potency was inconclusive: 1.78 µM [inhibitor, partial curve, poor fit].
`S=c1nccc(-c2ccc(Cl)cc2)[nH]1` was tested, and the Potency was inconclusive: 22.4 µM [inhibitor, single point].
